Consider one molecule from patent US5710022, “Nuclear mitotic phosphoprotein” (Board of Regents of the University of Texas System, dated 1998).

For this assay, the target named is purified p56-RB (Homo sapiens (Human), UniProt P06400). The assay can be described thus: blot of purified GST fusion proteins probed with the Rb-sandwich. An excerpt: (A) Two identical blots containing seven purified MBP fusion proteins were probed with either the "Rb-sandwich" (lanes 1–7) or with an antibody to MBP (New England Biolabs) (lanes 8–14). […] (B) Similarly, two identical blots of the purified GST-fusion proteins were probed with either the "Rb-sandwich" (lanes 15–17) or with an antibody to GST (lanes 18–20). […] (C) A diagram of the different constructs used in this experiment. […] (D) Sequence comparison of the Rb-binding region of mitosin with the Rb-binding domain of E2F-1 (in bold letters) and neighboring residues (SEQ. ID NOS: 3 and 4). […] Dashed lines indicate conserved residues and solid lines indicate identical residues.

B1: GST alone (other)
chain: not shown
Regarding B1, the binding result is on record as “no binding”.
